# Data taken from the supplement of paper PMC10126150.
# Values marked as one replicate rest on one cluster of the flow cell; about a third of the high ones do not repeat.
# Tested on: ATP
# Test: switch fluorescence ratio, 500 uM ATP over buffer (Cy3 cluster intensity, sum of 5 cycles each) (fold (ratio)); higher = stronger signal-on switching upon ATP binding; sequences stand for … in TCGTCGGCAGCGTCAGATGTGTATAAGAGACAGTTTTTTTTTTTTTTTTTTTTTTTTT…TC
# Conditions: aptamer strand: ATP DNA aptamer (quencher-CACCTGGGGGAGTATTGCGGAGGAAGG + anchor), 100 nM annealed; ATP concentration: 500 uM; one replicate
# Summary of the method: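 Cy3-labelled switching-strand clusters on a modified Illumina MiSeq flow-cell were annealed to 100 nM quencher-labelled ATP aptamer and imaged first in selection buffer, then after 15 min with 500 uM ATP at 22 °C. NaOH stripping and re-annealing separated each of five buffer/ATP cycles, and clusters outside 100-1000 RFU were excluded. The fluorescence ratio sums target-cycle Cy3 intensity over buffer-cycle Cy3 intensity per cluster and averages it per switch-domain sequence.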
# 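Note: ATP exposure 15 min at 22 °C before imaging.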
row,Sequence,switch fluorescence ratio
1,GTCTTAATAC,1.42
2,CCAGCGAAAA,0.976
3,GGCCCGCGCA,1.06
4,AAATAGTGCA,0.976
5,ATTTTTAAG,1.05
6,CTGCTTGCG,0.993
7,GGACTGCTAA,1.08
8,AAATTGTAGT,1
9,ACGAGAATGT,1.01
10,ACGTGGTTCG,1
11,GAGTTTCGGA,0.954
12,TCATGACGAC,1.2
13,CGTTGCGCAG,0.989
14,AGCGGTTAAA,0.985
15,CTGTAGCTCA,2.67
16,AGAGAAATTA,0.984
17,GTAAAAAAGT,1.01
18,CAAGGGGTAT,0.983
19,AGCCCCGGTT,0.995
20,GAGTCGGAT,1.04
21,AATCTCTCAT,1.02
22,AAGCCCCTG,0.957
23,CTCCCGGAGT,1.14
24,ACGAGATGAG,1.04
25,TATTGGGGCC,1.07

row,Sequence,switch fluorescence ratio
1,TGGTGTCAAC,0.945
2,TTATACAGTT,0.995
3,GTGTTATACC,1.02
4,ATCGGGGAAG,0.962
5,GTGTGGTCC,1.06
6,GATCCCGGGG,0.933
7,TATGTGTTAC,0.997
8,TCTAGTGCAT,1.05
9,CGATACCCGA,1.04
10,ACGCATCGGA,1.01
11,CGCCTAGATT,0.931
12,GGGCGTACGT,0.932
13,CGACCGTGGT,1.03
14,GTCTAAAGCT,1
15,AGGTATTAGA,1.03
16,ATGTATGATC,1.02
17,ATGAATCATA,0.984
18,ACTACGTATG,1.01
19,GCGTAGTGTT,0.997
20,CCTGACACTG,1.06
21,GCGTCCTCAG,1.14
22,CTCGGCACAG,1.51
23,GTGTGATAT,1.02
24,GTCATACACT,1.02
25,TTCCCTTGGG,1.07

row,Sequence,switch fluorescence ratio
1,GGGTAACTCT,0.971
2,GACGAATTAT,1.01
3,GGAACGTTTG,0.99
4,TCCTATGCAG,1.37
5,CGACGATAAG,1.01
6,AGACTTCCCT,1.15
7,AAACGCGATT,1.11
8,GATTTGGTCC,1.03
9,TCTGCTGCGG,0.995
10,TTCGCAGCAT,6.42
11,TTAATCCAAG,1.03
12,ATATCTCAGC,1.03
13,GTATTCCCGG,1.46
14,TTGGACTCTC,1
15,GGCAACAAGA,0.971
16,TTTTTCCCGT,1.04
17,CTCCGGGAAT,3.67
18,GCCACGGTGC,1.8
19,TTTCTCCTAA,1.06
20,TTGATTCCAG,1.05
21,ACACGTTGGA,0.979
22,GCGTGATCA,1.03
23,CAAATAAGCG,0.98
24,TCACAGGTAG,1.37
25,GCGAGCACGT,0.985

row,Sequence,switch fluorescence ratio
1,GGTATAGAAC,1
2,CGCTAAATTT,1.03
3,TGTGAATTTG,0.989
4,ATGGTAGCCC,0.999
5,GACGCGTCGA,1.01
6,ATTTCTTTCG,1.02
7,TTCTAAGCAT,1.21
8,ATCAACTTGC,1.03
9,GAACGTGGCT,1.01
10,GGTGAGTACC,0.995
11,TAGATGTAGA,1.04
12,CAGTTCATGG,0.976
13,TCTAGAGCGT,1.04
14,CAATTAGATA,1.01
15,TCTGTAGGAC,1.11
16,GTTATCGATG,1.01
17,TTCCTGAGCC,1.3
18,AGCTCTCCAA,1.1
19,CCCCTTGTCG,1.01
20,AGACTTATGT,0.974
21,ACAGTTCGAG,0.987
22,CGCTTCAACC,1.06
23,AAACCAGCGG,0.972
24,AATAGTATTG,0.954
25,TTAAACCAGA,1

row,Sequence,switch fluorescence ratio
1,TAATATCCG,1.08
2,TCGGAAATTA,0.976
3,GTGTGCTAGG,0.97
4,AATGCAGCAC,1.27
5,TAAGCTCCAT,0.991
6,TAGCTTGGGT,1.02
7,ATGTGTTGTT,0.979
8,CTCGGGCATC,1.41
9,GATTAAGGCG,1.04
10,ATCATTGCGC,0.979
11,TAGATGGTG,0.999
12,CGTTAGCGTC,1.03
13,GATACTCAGG,1.08
14,ACAGGCGGGA,1.07
15,GAGAGGCATG,1.01
16,TGACGAAATT,4.04
17,TTGGACGTAG,1.01
18,GGTGGCCGGG,0.991
19,AAGAACGTTT,0.977
20,GAATGATCCT,1.04
21,GGCTTGAAC,1.11
22,AGCACGGTAT,1.13
23,GGGAATATGG,1.04
24,CGTTTGAAC,1.01
25,TCCGGATAGT,1.1

row,Sequence,switch fluorescence ratio
1,TATTTAACAG,1.05
2,GACTGTAAAC,1.2
3,AAAGGGACTC,1.02
4,GTCGGCGGGA,1.03
5,TGTACAATGA,1.05
6,TTAGAATTCG,0.999
7,GTGGGATCAC,1.03
8,CATGAGGTGC,1.09
9,AGAAGTGCAG,1.01
10,CCTGTCAACT,1.04
11,AATCGCATCC,1.33
12,GCGTGGCCGG,1.03
13,TATTCTCCAT,0.986
14,GTAAGGATAG,0.987
15,TCGTTAGTTA,0.984
16,CTGGGGGACA,0.978
17,TATGTGGGCA,0.988
18,TAACGCATGA,1.27
19,TTACGCAGGA,1.06
20,GGTCATGGGT,1
21,CTATCACGAA,1.03
22,CCGGAGAAGT,3.6
23,TTGGTCGACC,1.11
24,CATTTTTAGT,1.02
25,GTCAGGAT,1.01

row,Sequence,switch fluorescence ratio
1,TCTTACTGCG,1.05
2,TGCTCAACTA,1.02
3,TTGGTAACCG,1
4,TACCATGATG,0.96
5,ATCGGGTCCG,0.94
6,TCCAACAGGT,2.06
7,AAGGCTCAGT,1
8,GAGAAGCCTG,0.905
9,AGGGGCAGAA,0.995
10,ATTCTGTCGA,1.05
11,ATCCAGTGCT,1.05
12,AGCCCGCCAC,1.72
13,AAGGTGTG,0.994
14,CGGACGAGGG,1.02
15,TCATAACGC,1.11
16,AGCCTTCTGA,1.25
17,CAGAACCGGC,1.03
18,GTGATAACGC,0.998
19,TTGCGAAGTC,1.03
20,ACACTTTCTG,0.991
21,AAGGTATAA,1.02
22,AAGTTATTAG,0.981
23,CCAAGTTGGA,1.03
24,TAGAAGACCT,1.08
25,ATTGCATTAG,1.05

row,Sequence,switch fluorescence ratio
1,ACGTATAATT,1.07
2,GGCCACGTTG,1.01
3,TGCTGCCAG,0.953
4,AACCAACCTG,1
5,ACGGACATTG,1.05
6,TTTACGTTCT,0.976
7,GTTATGTGTT,0.981
8,GCACGTACGC,1.65
9,ATTAAATGCA,0.992
10,GCGTTCGTTA,0.994
11,ATAAAATAGG,1
12,CCACATGAGT,0.982
13,GATGTCTCAT,1.03
14,GCGAATACAA,1.08
15,TTGAGTAGAG,0.992
16,CCGGGCTCTT,1.07
17,TCGTGTGCGG,0.902
18,TCGACCGCTT,0.981
19,AGTCCTCTAT,0.984
20,ATATTGCGG,1.01
21,TCATGTGAAC,1.01
22,ATGGAGGCCT,0.988
23,TTATCGGCCC,1.02
24,AAATAAAAAA,0.967
25,TGTGTGAGAG,0.97
